Measurements taken from patent US5763404A, “Methods for using LHRH antagonists with low histamine release” (priority 1995, dated 1998).
Where “and” joins values, the source holds several entries; their conditions need not be identical. Equal entries are not always repeated. Where two headings read alike, the source gives them in different places. At least one peptide structure holds a part that was inferred or is arguable (an end, a ring closure or a residue). Starred links: 1 amine or outer side, 2 acyl side, 3 side chain; linkers in the order of their positions; H or OH if unused. Non-standard residues stand in square brackets, D forms with d. Residues, ends and D or L forms follow the SMILES beside them. *: point of attachment. dAla(cis-4-NHCOPyz-cHex) = N[C@H](C[C@H]1CC[C@@H](NC(=O)c2cnccn2)CC1)C(=O)O; X1 = O=C(N[C@H]1CC[C@@H](C[C@@H](N[*:1])C(=O)[*:2])CC1)c1ccccn1; dPhe(4-Cl) = N[C@H](Cc1ccc(Cl)cc1)C(=O)O; d2Nal = N[C@H](Cc1ccc2ccccc2c1)C(=O)O; Lys(iPr) = CC(C)NCCCC[C@H](N)C(=O)O; aIle = CC[C@@H](C)[C@H](N)C(=O)O; d3Pal = N[C@H](Cc1cccnc1)C(=O)O; Nicotinoyl = O=C(c1cccnc1)*; Picolinoyl = O=C(c1ccccn1)*; Abu = CC[C@H](N)C(=O)O

Assays:
[1] = system: 4-day cycling rats; test: antiovulatory activity (AOA) in rats, single sc injection; format: in vivo, rat; settings: for AOA %/μg 0.5: 0.5 μg sc in corn oil; for AOA %/μg 1.0: 1.0 μg sc in corn oil; for AOA %/μg 0.25: 0.25 μg sc in corn oil; for AOA/μg 0.25: 0.25 μg sc; for AOA/μg 0.5: 0.5 μg sc
[2] = system: 26 days old female rats; test: duration of action s.c.: serum LH and FSH after agonist [D-Qal^6]-LHRH; format: in vivo, rat; settings: for FSH / LH: -24 hr, agonist 50 ng sc, +2 hrs
[3] = system: rat mast cells; test: in vitro histamine release test; format: cell-based; settings: rat mast cells, ± SEM
[4] = system: 4-day cycling rats; settings: From Reference 1, cited from earlier work
[5] = system: rat mast cells; settings: ± SEM; From Reference 1; cited from earlier work
[6] = system: 26 days old female rats; test: oral activity: serum LH and FSH after agonist [D-Qal^6]-LHRH; format: in vivo, rat
Experimental: For the determination of duration of action, the antagonist was administered s.c. or orally to 26 days old female rats at a specific time before administration of the agonist, [D-Qal^6 ]-LHRH. The serum levels of rat luteinizing hormone (LH) and rat follicle stimulating hormone (FSH) were then measured 2 hours after the agonist administration by RIA. The oral administration was done through force-feeding with feeding tubes.

[7] = injected 3 ug 24 hours before the agonist
[8] = injected 10 ug 24 hours before the agonist
[9] = injected 30 ug 24 hours before the agonist
[10] = oral 30 μg in 10 mM HOAC:Water (1:1), -2 hrs, agonist 15 ng sc, +2 hrs
[11] = oral 100 μg in 10 mM HOAC:Water (1:1), -2 hrs, agonist 15 ng sc, +2 hrs
[12] = oral 300 μg in 10 mM HOAC:Water (1:1), -2 hrs, agonist 15 ng sc, +2 hrs

## CC(=O)N[C@H](Cc1ccc2ccccc2c1)C(=O)N[C@H](Cc1ccc(Cl)cc1)C(=O)N[C@H](Cc1cccnc1)C(=O)N[C@@H](CO)C(=O)N[C@@H](Cc1ccc(O)cc1)C(=O)N[C@H](CCCCNC(=O)c1cccnc1)C(=O)N[C@@H](CC(C)C)C(=O)N[C@@H](CCCCNC(C)C)C(=O)N1CCC[C@H]1C(=O)N[C@H](C)C(N)=O [IBR 24315] (Ac-[d2Nal][dPhe(4-Cl)][d3Pal]SY[dK](Nicotinoyl)L[Lys(iPr)]P[dA]-NH2)
[1]
  AOA %/μg 0.5: 45%
[1]; listed as No. 4
  AOA %/μg 1.0: ≥ 90%
[2]; [7]
  LH level: 19 ± 4 ng/µL
[2]; [8]
  LH level: 3 ± 0.4 ng/µL
[2]; [9]
  LH level: 0.3 ± 0.03 ng/µL
[2]; s.c. 3 μg
  FSH: 719 ± 123 ng/mL
  LH: 19 ± 4 ng/mL
[2]; s.c. 10 μg
  FSH: 289 ± 30 ng/mL
  LH: 3 ± 0.4 ng/mL
[2]; s.c. 30 μg
  FSH: 147 ± 10 ng/mL
  LH: 0.3 ± 0.03 ng/mL
[3]; listed as No. 4
  In Vitro Histamine Release ED50: > 86 µg/mL and 133 ± 22 µg/mL

## CC(=O)N[C@H](Cc1ccc2ccccc2c1)C(=O)N[C@H](Cc1ccc(Cl)cc1)C(=O)N[C@H](Cc1cccnc1)C(=O)N[C@@H](CO)C(=O)N[C@@H](CCCCNC(=O)c1ccccn1)C(=O)N[C@H](CCCCNC(=O)c1ccccn1)C(=O)N[C@@H](CC(C)C)C(=O)N[C@@H](CCCCNC(C)C)C(=O)N1CCC[C@H]1C(=O)N[C@H](C)C(N)=O [IBR 25147, [N-Ac-D-2-Nal^1,D-pClPhe^2,D-3-Pal^3,PicLys^5,D-PicLys^6, ILys^8,D-Ala^10]-LHRH] (Ac-[d2Nal][dPhe(4-Cl)][d3Pal]SK(Picolinoyl)[dK](Picolinoyl)L[Lys(iPr)]P[dA]-NH2)
[4]; 0.25 μg sc
  AOA %/μg 0.25: 40%
[4]; 0.5 μg sc
  AOA %/μg 0.5: 100%
[4]; 1.0 μg sc
  AOA %/μg 1.0: 90%
[1]
  AOA %/μg 0.25: 40%
  AOA %/μg 0.5: 100%
[1]; listed as No. 53
  AOA %/μg 1.0: ≥ 90%
[3]; listed as No. 53
  In Vitro Histamine Release ED50: > 86 μg/ml and 93+28 μg/ml
[3]; listed as V-10
  In Vitro Histamine Release ED50: 93 ± 11 µg/mL
[3]; listed as identical to Antide except for PiCLys^5 and D-PicLys^6
  In Vitro Histamine Release ED50: 93 ± 11 µg/mL
[5]
  In Vitro Histamine Release ED50: 93 ± 11 µg/mL

## CC(=O)N[C@H](Cc1ccc2ccccc2c1)C(=O)N[C@H](Cc1ccc(Cl)cc1)C(=O)N[C@H](Cc1cccnc1)C(=O)N[C@@H](CO)C(=O)N[C@@H](CCCCNC(=O)c1ccccn1)C(=O)N[C@H](C[C@H]1CC[C@@H](NC(=O)c2cnccn2)CC1)C(=O)N[C@@H](CC(C)C)C(=O)N[C@@H](CCCCNC(C)C)C(=O)N1CCC[C@H]1C(=O)N[C@H](C)C(N)=O [IBR 25897] (Ac-[d2Nal][dPhe(4-Cl)][d3Pal]SK(Picolinoyl)[dAla(cis-4-NHCOPyz-cHex)]L[Lys(iPr)]P[dA]-NH2)
[1]; 0.125 μg sc in corn oil
  AOA %/μg 0.125: 29%
[1]
  AOA %/μg 0.5: 100%
[2]; [7]
  LH level: 42 ± 7 ng/µL
[2]; [8]
  LH level: 15 ± 3 ng/µL
[2]; [9]
  LH level: 3.4 ± 2 ng/µL
[2]; s.c. 1 μg
  FSH: 2020 ± 295 ng/mL
  LH: 91 ± 19 ng/mL
[2]; s.c. 3 μg
  FSH: 1298 ± 275 ng/mL
  LH: 42 ± 7 ng/mL
[2]; s.c. 10 μg
  FSH: 624 ± 84 ng/mL
  LH: 15 ± 3 ng/mL
[2]; s.c. 30 μg
  FSH: 273 ± 89 ng/mL
  LH: 3.4 ± 2 ng/mL
[6]; [10]
  FSH: 1761 ± 191 ng/mL
  LH: 77 ± 12 ng/mL
[6]; [11]
  FSH: 1782 ± 388 ng/mL
  LH: 59 ± 12 ng/mL
[6]; [12]
  FSH: 467 ± 43 ng/mL
  LH: 6.3 ± 1.4 ng/mL

## CC[C@@H](C)[C@H](NC(=O)[C@@H](CCCCNC(=O)c1ccccn1)NC(=O)[C@H](CCCCNC(=O)c1ccccn1)NC(=O)[C@H](CO)NC(=O)[C@@H](Cc1cccnc1)NC(=O)[C@@H](Cc1ccc(Cl)cc1)NC(=O)[C@@H](Cc1ccc2ccccc2c1)NC(C)=O)C(=O)N[C@@H](CCCCNC(C)C)C(=O)N1CCC[C@H]1C(=O)N[C@H](C)C(N)=O [IBR 25936] (Ac-[d2Nal][dPhe(4-Cl)][d3Pal]SK(Picolinoyl)[dK](Picolinoyl)[aIle][Lys(iPr)]P[dA]-NH2)
[1]
  AOA %/μg 0.25: 43%
  AOA %/μg 0.5: 89%
[3]
  In Vitro Histamine Release ED50: > 300 µg/mL
[6]; [10]
  FSH: 1965 ± 256 ng/mL
  LH: 71 ± 9 ng/mL
[6]; [11]
  FSH: 1031 ± 195 ng/mL
  LH: 54 ± 10 ng/mL
[6]; [12]
  FSH: 514 ± 54 ng/mL
  LH: 6 ± 1.1 ng/mL

## CC(=O)N[C@H](Cc1ccc2ccccc2c1)C(=O)N[C@H](Cc1ccc(Cl)cc1)C(=O)N[C@H](Cc1cccnc1)C(=O)N[C@@H](CO)C(=O)N[C@@H](CCCCNC(=O)c1ccccn1)C(=O)N[C@H](C[C@H]1CC[C@@H](NC(=O)c2ccccn2)CC1)C(=O)N[C@@H](CC(C)C)C(=O)N[C@@H](CCCCNC(C)C)C(=O)N1CCC[C@H]1C(=O)N[C@H](C)C(N)=O [IV-4] (Ac-[d2Nal][dPhe(4-Cl)][d3Pal]SK(Picolinoyl)[X1]L[Lys(iPr)]P[dA]-NH2)
[1]
  AOA %/μg 0.5: 54%
[3]
  In Vitro Histamine Release ED50: 41 ± 5.4 µg/mL
[6]; [10]
  FSH: 1831 ± 249 ng/mL
  LH: 79 ± 9 ng/mL
[6]; oral 30 ug, 15 ng agonist s.c.
  LH: no significant reduction of LH
[6]; [11]
  FSH: 2175 ± 211 ng/mL
  LH: 76 ± 6 ng/mL
[6]; oral 100 ug, 15 ng agonist s.c.
  LH: no significant reduction of LH
[6]; [12]
  FSH: 1404 ± 117 ng/mL
  LH: 51 ± 6 ng/mL

## CC(=O)N[C@H](Cc1ccc2ccccc2c1)C(=O)N[C@H](Cc1ccc(Cl)cc1)C(=O)N[C@H](Cc1cccnc1)C(=O)N[C@@H](CO)C(=O)N[C@@H](CCCCNC(=O)c1ccccn1)C(=O)N[C@H](CCCCNC(=O)c1ccccn1)C(=O)N[C@H](C(=O)N[C@@H](CCCCNC(C)C)C(=O)N1CCC[C@H]1C(=O)N[C@H](C)C(N)=O)C(C)C [compound 25934] (Ac-[d2Nal][dPhe(4-Cl)][d3Pal]SK(Picolinoyl)[dK](Picolinoyl)V[Lys(iPr)]P[dA]-NH2)
[1]; Table III
  AOA/μg 0.25: 43
  AOA/μg 0.5: 90
[1]; Table III, 1.0 μg sc
  AOA/μg 1.0: 100
[3]
  In Vitro Histamine Release ED50: 213 ± 30 µg/mL

## CC[C@H](NC(=O)[C@@H](CCCCNC(=O)c1ccccn1)NC(=O)[C@H](CCCCNC(=O)c1ccccn1)NC(=O)[C@H](CO)NC(=O)[C@@H](Cc1cccnc1)NC(=O)[C@@H](Cc1ccc(Cl)cc1)NC(=O)[C@@H](Cc1ccc2ccccc2c1)NC(C)=O)C(=O)N[C@@H](CCCCNC(C)C)C(=O)N1CCC[C@H]1C(=O)N[C@H](C)C(N)=O [compound 25990] (Ac-[d2Nal][dPhe(4-Cl)][d3Pal]SK(Picolinoyl)[dK](Picolinoyl)[Abu][Lys(iPr)]P[dA]-NH2)
[1]; Table III
  AOA/μg 0.25: 36
  AOA/μg 0.5: 100
[3]
  In Vitro Histamine Release ED50: 273 ± 27 µg/mL
